# In the supplement of paper PMC6135742:
# Values joined by “and” are separate entries in the source; they are usually repeats but may differ in a detail not shown here. Equal values may be shown once. Where a name gives a salt, the structure may show the parent alone. ± gives the standard deviation of the averaged measurements. The full ranking holds about 2,600 compounds; the median of “total cell number (DAPI+ nuclei) relative to DMSO vehicle control” is about -1.4, and the lowest 2% start at about -23. The list shows a part of the results.
# Tested on: jimpy (Plp1 jimpy) mouse iPSC-derived oligodendrocyte progenitor cells
# Test: total cell number (DAPI+ nuclei) relative to DMSO vehicle control (SDs above negative control mean); higher = more surviving cells
# Settings: 10 µM; 3 days
row,SMILES,total cell number
1,CC(C)(C)NC[C@H](O)COc1nsnc1N1CCOCC1 [S(-)-Timolol maleate],-0.296
2,CC(C)(C)NC[C@H](O)COc1nsnc1N1CCOCC1 [Timolol Maleate],-0.189
3,COc1cc(OC)c2c(=O)[nH]c(-c3cc(C)c(OCCO)c(C)c3)nc2c1,-2.09
4,Oc1ccccc1O [Pyrocatechol],-10.2
5,COc1cccc(NC(=O)/C=C/c2ccc(Cl)cc2)c1,-5.65
6,NCCOc1cc(C(=O)Nc2cc(OCCN)c3ccccc3n2)nc(C(=O)Nc2cc(OCCN)c3ccccc3n2)c1 [Pyridostatin trifluoroacetate salt],-6.18
7,CO/N=C(\C(=O)N[C@@H]1C(=O)N2C(C(=O)O)=C(CSc3nc(=O)c(O)nn3C)CS[C@H]12)c1csc(N)n1 [Ceftriaxone sodium],-1.57
8,FC(F)(F)c1ccccc1-n1ccnc1 [1-[2-(Trifluoromethyl)phenyl]imidazole],-1.32
9,CC(C)[C@H]1C(=O)N[C@@H](CCCNC(=N)N)C(=O)NCC(=O)N[C@@H](CC(=O)O)C(=O)N[C@H](Cc2ccccc2)C(=O)N1C [Cilengitide],1.19
10,COc1ccc(CCN(C)CCCC(C#N)(c2cc(OC)c(OC)c(OC)c2)C(C)C)cc1OC (racemic) [(±)-Methoxyverapamil hydrochloride],-2.78
11,O=C(c1cccc(Cl)c1F)N1CCN(Cc2cccc(Nc3nccs3)n2)CC1,-5.43
12,Cc1scc2c1N(C(=O)CN1CCN(C)CC1)c1ccccc1NC2=O [Telenzepine dihydrochloride],-0.695
13,"CN(C)CCC(c1ccc(Cl)cc1)c1ccccn1 (single isomer, unassigned; (+)) [(+)-Chlorpheniramine maleate]",-2.19
14,Cn1c(=O)cc(N2CCC[C@@H](N)C2)n(Cc2cc(F)ccc2C#N)c1=O [Trelagliptin],-0.519
15,CCCCCCCCCCCCCCCC(=O)OC[C@H](COP(=O)(O)OCCNC(=O)[C@H](C)NC(=O)CC[C@@H](NC(=O)[C@H](C)NC(=O)[C@@H](C)O[C@H]1[C@H](O)[C@@H](CO)OC(O)[C@@H]1NC(C)=O)C(N)=O)OC(=O)CCCCCCCCCCCCCCC (stereo partly specified) [Mifamurtide],-0.249
16,Cn1c(=O)c2nc[nH]c2n(C)c1=O [Theophylline],-0.885
17,C=C1c2cccc(O)c2C(=O)C2=C(O)[C@]3(O)C(=O)C(C(N)=O)=C(O)[C@@H](N(C)C)[C@@H]3[C@@H](O)[C@H]12 [Methacycline HCl],0.98
18,c1ccc(C2CN3CCSC3=N2)cc1 (stereo unspecified) [Tetramisole hydrochloride],-0.22
19,CCCN[C@H]1CCc2nc(N)sc2C1 [Pramipexole dihydrochloride],-0.809
20,CCCN[C@H]1CCc2nc(N)sc2C1 [Pramipexole],0.746
21,CC(C)(C)Cn1c(N)nc2ccc(-c3[nH]c(C(C)(C)C)nc3-c3ccc(F)cc3)nc21,-11.9
22,OC[C@H]1O[C@H]([S-])[C@H](O)[C@@H](O)[C@@H]1O.[Au+] [Aurothioglucose],-2.94
23,CCC(=O)N1CCN(C(=O)c2ccccc2)CC1,-0.463
24,CCOC(=O)c1ccc(OC(=O)CCCCCNC(=N)N)cc1 [Gabexate Mesylate],1.19
25,Cc1cc(=O)oc2cc(O)ccc12 [4-Methylumbelliferone (4-MU)],0.218
26,CNC(=O)c1cc2c(cn1)[nH]c1ccccc12 [N-Methyl-beta-carboline-3-carboxamide],-0.846

row,SMILES,total cell number
1,COc1cc(/C=C/C(=O)N2CCN(CC(=O)N3CCCC3)CC2)cc(OC)c1OC [Cinepazide maleate],-0.73
2,O=C(Nc1ccc(OC(F)(F)F)cc1)c1sccc1NCc1ccnc2ccccc12,8.56
3,CCCCCCCCCCCCCCCCCCOP(=O)([O-])OC1CC[N+](C)(C)CC1 [Perifosine],-0.796
4,CC(=O)Nc1cccc2c1c(Sc1ccc(Cl)cc1)c(C)n2CC(=O)O,-0.575
5,CCCNC(C)C(=O)Nc1ccccc1C (stereo unspecified) [Prilocaine],-0.723
6,CCCNC(C)C(=O)Nc1ccccc1C (stereo unspecified) [Prilocaine hydrochloride],-1.95
7,COc1ccc(CN(CCN(C)C)c2ccccn2)cc1 [Pyrilamine maleate],-0.472
8,Nc1ncn([C@@H]2O[C@H](CO)[C@@H](O)[C@H]2O)c(=O)n1 [Azacitidine],-1.65
9,Nc1ncn([C@@H]2O[C@H](CO)[C@@H](O)[C@H]2O)c(=O)n1 [5-azacytidine],-2.67
10,CC(COc1ccccc1)N(CCCl)Cc1ccccc1 (stereo unspecified) [Phenoxybenzamine HCl],0.335
11,CCSC(=N)N [S-Ethylisothiourea hydrobromide],-0.322
12,CC(=O)c1ccc(S(=O)(=O)NC(=O)NC2CCCCC2)cc1 [Acetohexamide],1.18
13,Clc1ccc(C(Cn2ccnc2)OCc2c(Cl)cccc2Cl)c(Cl)c1 (stereo unspecified) [Isoconazole nitrate],8.89
14,COc1ccccc1CNC1CCCNC1c1ccccc1 (stereo unspecified),-2.77
15,NC(=O)N1c2ccccc2C=Cc2ccccc21 [Carbamazepine],0.271 ± 1.6
16,CCOC(=O)C1=C(C)NC(C)=C(C(=O)OCC)C1c1c(F)c(F)c(F)c(F)c1F [Nemadipine-A],-0.654
17,CC(C)n1nc(-c2cc3cc(O)ccc3[nH]2)c2c(N)ncnc21,-12
18,CN(C)CCN(Cc1cccs1)c1ccccn1 [Methapyrilene hydrochloride],-0.917
19,O=c1ncccn1[C@@H]1O[C@H](CO)[C@@H](O)[C@H]1O [Zebularine],1.16
20,O=C(CCCCCCNC(=O)c1cnc(N(c2ccccc2)c2ccccc2)nc1)NO [Rocilinostat (ACY-1215)],-9.28
21,NC(CO)(CO)CO [Trometamol],-0.542
22,c1cnc2cc3c(cc2n1)[C@@H]1CNC[C@H]3C1 [Varenicline tartrate],-2.7
23,c1cnc2cc3c(cc2n1)[C@@H]1CNC[C@H]3C1 [Varenicline Tartrate],1.55
24,C[C@@H](N)[C@H]1CC[C@H](C(=O)Nc2ccncc2)CC1,-1.42 and -2.14
25,CCCCCN(CCCOC)C(=O)C(CCC(=O)O)NC(=O)c1ccc(Cl)c(Cl)c1 (stereo unspecified) [Loxiglumide],-0.322
